Reference: the GPR68 mutational scans of Howard et al. (2025)

B1: GPR68, Q15743 (parent)
chain: MGNITADNSSMSCTIDHTIHQTLAPVVYVTVLVVGFPANCLSLYFGYLQIKARNELGVYLCNLTVADLFYICSLPFWLQYVLQHDNWSHGDLSCQVCGILLYENIYISVGFLCCISVDRYLAVAHPFRFHQFRTLKAAVGVSVVIWAKELLTSIYFLMHEEVIEDENQHRVCFEHYPIQAWQRAINYYRFLVGFLFPICLLLASYQGILRAVRRSHGTQKSRKDQIQRLVLSTVVIFLACFLPYHVLLLVRSVWEASCDFAKGVFNAYHFSLLLTSFNCVADPVLYCFVSETTHRDLARLRGACLAFLTCSRTGRAREAYPLGAPEASGKSGAQGEEPELLTKLHPAFQTPNSPGSGGFPTGRLA

Key:
[1] = variants of: B1; test: cAMP reporter score (Enrich2 score, wild type = 0); higher = more signal; HEK293T, FACS bins
[2] = variants of: B1; test: surface expression score (Enrich2 score, wild type = 0); higher = more signal; HEK293T, FACS bins

Variant	cAMP reporter score ([1]; pH 5.5)	cAMP reporter score ([1]; pH 6)	cAMP reporter score ([1]; pH 6, modulator: ogerin)	cAMP reporter score ([1]; pH 6.5, modulator: ogerin)	surface expression score [2]
L32C	-0.309	-0.9	-0.439	-1.06	-2.26
L32D	-1.82	-1.74	-1.4	-2.03	-2.51
L32I	-0.606	1.54	-0.629	0.885	-0.902
L32Q	-0.431	-0.183	-0.666	–	–
L32T	-0.589	-0.882	-0.944	-0.485	-1.93
L32R	-1.81	-0.955	-1.47	-1.28	-2.66
L32H	-1.29	-0.676	-1.06	-1.53	-2.41
L32N	-1.14	-0.519	-1.28	-0.361	-1.81
L32S	-0.159	–	–	-1.9	-2.54
L32W	-1.67	-1.33	-1.33	-1.43	-1.42
L32E	-0.192	-0.582	–	-0.668	-2.09
L32Y	-1.51	-1.66	–	-1.22	–
L32K	-1.02	-1.61	-1.4	-0.592	-3.16
L32F	-0.316	-0.482	-0.824	-0.919	0.08
L32G	-0.239	-1.41	–	-0.614	-1.28
A38F	-0.728	0.902	-0.326	0.874	-0.111
A38K	-0.624	–	-0.455	-0.393	-3.22

Variant	cAMP reporter score ([1]; pH 5.5)	cAMP reporter score ([1]; pH 6)	cAMP reporter score ([1]; pH 6, modulator: ogerin)	cAMP reporter score ([1]; pH 6.5, modulator: ogerin)	surface expression score [2]
A38Q	-0.793	–	–	–	-2.97
A38C	-0.427	-0.187	-0.062	-0.585	-1.08
A38L	1.46	3.51	1.31	3.32	1.99
A38H	-1.17	-0.833	-2.19	-1.88	-2.38
A38M	-1.1	-0.247	-1.44	-0.324	0.501
A38W	-1.57	–	-2.11	-0.822	-0.591
A38T	-0.808	-0.375	-1.42	-1.13	-1.15
A38P	-0.415	0.2	-0.52	-0.162	-2.38
A38Y	-1.24	-1.29	-1.39	-0.53	–
A38V	-0.066	-0.427	-0.832	-0.925	0.372
A38D	-1.56	-0.704	-1.41	-0.428	-2.11
A38I	-0.137	-0.802	-0.423	-1.16	0.569
A38N	-1.42	-0.971	-1.51	-1.2	-2.15
A38S	-1.14	-0.737	-1.32	-0.435	-2.13
A38R	-2.05	-0.747	-1.73	-1.01	-1.89
A38G	-1.21	-1.1	-0.734	-0.705	-1.66

The least precise scores are not listed. The source holds two more conditions with little spread; they are left out. Names with del lack the residues named; names with ins carry added residues between the positions named. For some of these results: How much ogerin was present is not stated here.
